Data from the supplement of paper PMC8728848.
The list shows a part of the results.

Key:
Experiment in all cases: glycan array binding signal (z-score within array); higher = stronger binding
Conditions in all cases: glycan notation: IUPAC condensed, linker removed
[1] = target: Man(a1-2)Man(a1-3)[Man(a1-2)Man(a1-6)]Man
How it was run: (§1)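 Columns mapping to the same glycan were averaged after glycan names were converted to IUPAC-condensed notation. The data come from 3228 arrays in the Consortium for Functional Glycomics database, limited to those with an available protein sequence. Binding is reported as a within-array Z-score averaged across arrays of one protein sequence and across linkers.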

[2] = target: Man(a1-2)Man(a1-3)[Man(a1-2)Man(a1-6)]Man(a1-6)[Man(a1-2)Man(a1-2)Man(a1-3)]Man
How it was run: as §1

[3] = target: Man(a1-2)Man(a1-3)[Man(a1-2)Man(a1-6)]Man(a1-6)[Man(a1-2)Man(a1-2)Man(a1-3)]Man(b1-4)GlcNAc(b1-4)GlcNAc
How it was run: as §1

[4] = target: Man(a1-2)Man(a1-3)[Man(a1-6)]Man(a1-6)[Man(a1-2)Man(a1-3)]Man(b1-4)GlcNAc(b1-4)GlcNAc
How it was run: as §1

[5] = target: Man(a1-2)Man(a1-6)[Man(a1-3)]Man(a1-6)[Man(a1-2)Man(a1-2)Man(a1-3)]Man
How it was run: as §1

[6] = target: Man(a1-2)Man(a1-6)[Man(a1-3)]Man(a1-6)[Man(a1-2)Man(a1-2)Man(a1-3)]Man(b1-4)GlcNAc(b1-4)GlcNAc
How it was run: as §1

Man(a1-3)[Man(a1-6)]Man = target: Man(a1-3)[Man(a1-6)]Man
How it was run: as §1

[7] = target: Man(a1-3)[Man(a1-6)]Man(a1-6)[Man(a1-2)Man(a1-3)]Man(b1-4)GlcNAc(b1-4)GlcNAc
How it was run: as §1

[8] = target: Man(a1-3)[Man(a1-6)]Man(a1-6)[Man(a1-3)]Man
How it was run: as §1

[9] = target: Man(a1-3)[Man(a1-6)]Man(a1-6)[Man(a1-3)]Man(b1-4)GlcNAc(b1-4)GlcNAc
How it was run: as §1

[10] = target: Man(a1-3)[Man(a1-6)]Man(b1-4)GlcNAc(b1-4)GlcNAc
How it was run: as §1

[11] = target: Man(a1-3)[Man(a1-6)]Man(b1-4)GlcNAc(b1-4)[Fuc(a1-6)]GlcNAc
How it was run: as §1

Man(a1-6)Man = target: Man(a1-6)Man
How it was run: as §1

Man(b1-4)GlcNAc = target: Man(b1-4)GlcNAc
How it was run: as §1

MurNAc(b1-4)GlcNAc = target: MurNAc(b1-4)GlcNAc
How it was run: as §1

Neu5Ac(a2-3)Gal = target: Neu5Ac(a2-3)Gal
How it was run: as §1

[12] = target: Neu5Ac(a2-3)Gal(b1-3)GalNAc
How it was run: as §1

[13] = target: Neu5Ac(a2-3)Gal(b1-3)GalNAc(b1-3)Gal(a1-4)Gal(b1-4)Glc
How it was run: as §1

[14] = target: Neu5Ac(a2-3)Gal(b1-3)GalNAc(b1-4)[Neu5Ac(a2-3)]Gal(b1-4)Glc
How it was run: as §1

[15] = target: Neu5Ac(a2-3)Gal(b1-3)GalNAc(b1-4)[Neu5Ac(a2-8)Neu5Ac(a2-3)]Gal(b1-4)Glc
How it was run: as §1

[16] = target: Neu5Ac(a2-3)Gal(b1-3)GalNAc6S
How it was run: as §1

[17] = target: Neu5Ac(a2-3)Gal(b1-3)GlcNAc
How it was run: as §1

[18] = target: Neu5Ac(a2-3)Gal(b1-3)GlcNAc(b1-2)Man
How it was run: as §1

[19] = target: Neu5Ac(a2-3)Gal(b1-3)GlcNAc(b1-2)Man(a1-3)[GlcNAc(b1-4)][Neu5Ac(a2-3)Gal(b1-3)GlcNAc(b1-2)Man(a1-6)]Man(b1-4)GlcNAc(b1-4)GlcNAc
How it was run: as §1

[20] = target: Neu5Ac(a2-3)Gal(b1-3)GlcNAc(b1-2)Man(a1-3)[Neu5Ac(a2-3)Gal(b1-3)GlcNAc(b1-2)Man(a1-6)]Man(b1-4)GlcNAc(b1-4)GlcNAc
How it was run: as §1

[21] = target: Neu5Ac(a2-3)Gal(b1-3)GlcNAc(b1-2)[Neu5Ac(a2-3)Gal(b1-3)GlcNAc(b1-4)]Man(a1-6)[Neu5Ac(a2-3)Gal(b1-3)GlcNAc(b1-2)Man(a1-3)]Man(b1-4)GlcNAc(b1-4)GlcNAc
How it was run: as §1

[22] = target: Neu5Ac(a2-3)Gal(b1-3)GlcNAc(b1-3)Gal(b1-3)GlcNAc
How it was run: as §1

[23] = target: Neu5Ac(a2-3)Gal(b1-3)GlcNAc(b1-3)Gal(b1-4)GlcNAc
How it was run: as §1

[24] = target: Neu5Ac(a2-3)Gal(b1-3)GlcNAc(b1-3)GalNAc
How it was run: as §1

[25] = target: Neu5Ac(a2-3)Gal(b1-3)GlcNAc(b1-4)Gal(b1-4)Glc
How it was run: as §1

B1: CC1G-10077 (Coprinopsis cinerea), A8NDT7 (protein)
chain: MALNEGVYWIRNSRFTNKVLDLDAANVAKGTSILDFNEHGTFNENHNQLWIVERFQSRDTYLIRSVHSNLVLDLSQGLSANGTPILCWTQHGGTNQQWRIEWVKDDNKTPLYRIVSVATGTAISHNEDDSSAYTVAWSVDDGPKQLWSFDPFVTPLLYRLRVKSTSRVLDLAAASADNGTLALAWEQHTAITKRNQLWWLPYRSGAEEYTIQCLETSTVADLSGGNSGNGTPIYGWQSHGGRNQQWKFEPTSDSGDYYHIKNVEGGSVMDAYMNDSQKRVGGWSNNGGDNQKWLLDPLPSPGPGWVLIQNGGTGKFLCSTPSGDIGTADGPETVYDYSVQWRFIQREYTGVYHVVNRATGAYLRQIGTSMPSIGLAEENDDELKDWWMLETYDNSEIGLASIISRWTGNVLDHYGGVSVQALDNNTENSYRSWAIIPARDWLTSFSLVNGQGGLCLAAQYAREETRLSTTANVNDFHAQWVFRKPSGSSGYTIQNKYNNHYVGGTSARWELVVCCNKYFGIRNTSTQKYLAIEDGQVTFQDQDMTDRKQCWELCSGRATDTSGNDYDLIYMDDDLLEVMIPWVGDKQGDLKHYIEKRATKKPPKDKGGWQLPAAGLIKKPKFNDIRQLLQELIEQWEWDVVNEEREQIQTLVSIDEAEARRLLGRRPHPDIVAAYQRSRSSTLFRIDRQGYFNIAGDRYVNIQGQYGDDSYFHIALPVGVRFGREQIRRFLRDSLDRSTSVTITPTTCKPPSGGPDYNRDPDSDGDNSWIKWTIAVVGTSAIKHSEL
B1 was tested, and the “glycan array binding signal (z-score)” value [1] was -0.462, the “glycan array binding signal (z-score)” value [2] was -0.43 and the “glycan array binding signal (z-score)” value [3] was -0.463. For the same binder, the “glycan array binding signal (z-score)” value [4] was -0.432, the “glycan array binding signal (z-score)” value [5] was -0.508 and the “glycan array binding signal (z-score)” value [6] was -0.421. For the same binder, the “glycan array binding signal (z-score)” value (Man(a1-3)[Man(a1-6)]Man) was -0.431, the “glycan array binding signal (z-score)” value [7] was -0.358 and the “glycan array binding signal (z-score)” value [8] was -0.484. The “glycan array binding signal (z-score)” value [9] was -0.462, the “glycan array binding signal (z-score)” value [10] was -0.429 and the “glycan array binding signal (z-score)” value [11] was -0.371. For the same binder, the “glycan array binding signal (z-score)” value (Man(a1-6)Man) was -0.432, the “glycan array binding signal (z-score)” value (Man(b1-4)GlcNAc) was -0.396 and the “glycan array binding signal (z-score)” value (MurNAc(b1-4)GlcNAc) was -0.458. The “glycan array binding signal (z-score)” value (Neu5Ac(a2-3)Gal) was -0.51, the “glycan array binding signal (z-score)” value [12] was -0.471 and the “glycan array binding signal (z-score)” value [13] was -0.454. For the same binder, the “glycan array binding signal (z-score)” value [14] was -0.46, the “glycan array binding signal (z-score)” value [15] was -0.495 and the “glycan array binding signal (z-score)” value [16] was -0.429. The “glycan array binding signal (z-score)” value [17] was -0.452, the “glycan array binding signal (z-score)” value [18] was -0.539 and the “glycan array binding signal (z-score)” value [19] was -0.439. For the same binder, the “glycan array binding signal (z-score)” value [20] was -0.387, the “glycan array binding signal (z-score)” value [21] was -0.346 and the “glycan array binding signal (z-score)” value [22] was -0.514. For the same binder, the “glycan array binding signal (z-score)” value [23] was -0.476, the “glycan array binding signal (z-score)” value [24] was -0.447 and the “glycan array binding signal (z-score)” value [25] was -0.431.
